# Reference: PubChem BioAssay AID485344 (National Center for Advancing Translational Sciences (NCATS), 2010)
# Screen size: about 340,000 compounds; about 6,900 (2%) were called active. No stated cut-off is given here; in the data, active means inhibition above about 30%; inactive means below that, where a call was filed. This is a selection; strong and weak results do not stand in their true shares. Entries without a call were filed so in the source.
# Biological target: D(2) dopamine receptor (Homo sapiens) (UniProt P14416)
# Assay: HTS Assay for Allosteric Antagonists of the Human D2 Dopamine Receptor: Primary Screen for Antagonists; further: 0% is about no effect
# Settings: HEK293 TREx D2 cells, calcium flux, dopamine EC80; at 10 µM; stronger effect = higher value
# Summary of the method: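 Tetracycline-induced HEK293 TREx cells expressing D2 receptor forced-coupled to calcium signalling, loaded with no-wash calcium dye. Compounds added and calcium flux read 180 s, then dopamine added at EC80 and read a further 180 s.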
# Sequence of UniProt P14416 (P14416 whole entry, looked up): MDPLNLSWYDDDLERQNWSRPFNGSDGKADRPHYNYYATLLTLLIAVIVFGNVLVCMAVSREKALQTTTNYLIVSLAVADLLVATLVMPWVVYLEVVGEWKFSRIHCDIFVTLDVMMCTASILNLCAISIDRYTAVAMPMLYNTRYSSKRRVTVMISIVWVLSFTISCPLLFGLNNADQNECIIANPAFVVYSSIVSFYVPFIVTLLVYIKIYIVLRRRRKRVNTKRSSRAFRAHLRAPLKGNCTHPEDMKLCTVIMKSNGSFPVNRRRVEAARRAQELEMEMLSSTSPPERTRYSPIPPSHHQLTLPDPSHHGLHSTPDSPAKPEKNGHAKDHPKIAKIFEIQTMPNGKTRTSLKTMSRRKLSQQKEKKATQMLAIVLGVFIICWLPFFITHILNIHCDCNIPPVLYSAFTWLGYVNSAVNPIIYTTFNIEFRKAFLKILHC
row,Compound,inhibition
1,O=c1c2oc3ccccc3c2n(Cc2cccc(C(F)(F)F)c2)c(=O)n1Cc1ccc2c(c1)OCO2,-5.96%
2,Cc1cccc(C(=O)Nc2cccc(C(=O)OCc3cc(=O)n4ccsc4n3)c2)c1,15.2%
3,CCOC(=O)c1ccc2ncc(C(=O)OCC)c(Nc3ccc(C)c(Br)c3)c2c1,-22.6%
4,CCC(C(=O)NCc1ccccc1)n1ncn2c(cc3occc32)c1=O (stereo not given),-0.348%
5,Cc1ccc(NC(=O)c2cc3c(=O)n(Cc4cccnc4)ccc3nc2C)cc1F,1.24%
6,COc1ccc(Br)cc1CNC(=O)CN1C(=O)CSc2ccc(S(=O)(=O)N3CCOCC3)cc21,6.32%
7,COc1ccc(OC(C)C(=O)NCc2nc(-c3ccc(Cl)cc3)no2)cc1 (stereo not given),-23.9%
8,COc1ccc(NC(=O)CNS(=O)(=O)c2cccs2)c(OC)c1,-22.1%
9,CCOC(=O)c1cccc(NC(=O)c2cc(-c3ccc(Cl)s3)nc3ccccc23)c1,-1.89%
10,O=C(NCCc1ccccc1)c1ccc(CSc2nc3ccncc3n2Cc2ccccc2)cc1,-2.6%
11,Cc1ccc(NC(=O)CSc2nc(C)cc(C)c2C(=O)Nc2cccc(C)c2)cc1,3.84%
12,COc1ccc(NC(=O)Cn2ncc3c([nH]c4ccccc43)c2=O)cc1Cl,11.4%
13,CCN(CC)CCCNC(=O)c1cn(C)c2ccc(S(=O)(=O)N3CCOCC3)cc2c1=O,11.5%
14,O=C(NC1CC2CCCC(C1)N2Cc1ccccc1)c1ccc([N+](=O)[O-])cc1 (stereo not given),active: 86.6%
15,COc1cc(OC)cc(C(=O)Nc2ccc(S(=O)(=O)Nc3onc(C)c3C)cc2)c1,10.7%
16,O=C(Cn1nc(C(F)(F)F)c2c1CCCC2)Nc1ccc(Cl)cc1,-3.23%
17,CCOC(=O)c1c(C)[nH]c(CCC(=O)Nc2cc(C)cc(C)c2)c1C,7.51%
18,Cc1ccc(-n2c3c(cc(-c4nc(-c5ccc(Cl)cc5)cs4)c2=O)C(=O)CC(C)(C)C3)cc1,6.53%
19,COc1cccc(CNC(=O)CN2C(=O)CCn3nc(-c4cn(C)c5ccccc45)cc32)c1OC,-14.7%
20,O=C(Cc1ccc(Cl)cc1)NCC(c1cccs1)S(=O)(=O)c1ccc(Cl)cc1 (stereo not given),-15.8%
21,CCN(CC)S(=O)(=O)c1ccc(C)c(NC(=O)CNCc2ccccc2OC)c1,active: 96.3%
22,Cc1cccc(C(=O)Nc2nnc(SCc3cc(=O)n4cccc(C)c4n3)s2)c1,-4.01%
23,COc1ccc(C(=O)N/C(=C\c2cn(S(=O)(=O)N(C)C)c3ccccc23)C(=O)NCCCn2ccnc2)cc1,-6.45%
24,Cc1cccc(NC(=O)c2c(NC(=O)c3ccco3)sc3c2CCC(C(C)(C)C)C3)c1 (stereo not given),-17.5%
25,CN(Cc1ccccc1)C(=O)C1CCN(Cc2cc3ccccc3n2Cc2ccccc2)CC1,-16.8%
